This assay addresses T1, human FcγRIIB (human, UniProt P31994 43-217).
T1 chain: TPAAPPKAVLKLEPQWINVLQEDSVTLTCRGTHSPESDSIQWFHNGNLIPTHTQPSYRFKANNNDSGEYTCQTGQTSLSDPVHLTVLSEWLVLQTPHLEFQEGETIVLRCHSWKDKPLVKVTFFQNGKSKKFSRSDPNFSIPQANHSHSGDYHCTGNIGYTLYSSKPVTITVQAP
The assay can be described thus: SPR; human.

The text below walks through data of patent US20250171558A1 (published 2025).

The Kd is the equilibrium constant for the complex coming apart. A low value points to tighter binding.

B1: GAIE (protein)
chain: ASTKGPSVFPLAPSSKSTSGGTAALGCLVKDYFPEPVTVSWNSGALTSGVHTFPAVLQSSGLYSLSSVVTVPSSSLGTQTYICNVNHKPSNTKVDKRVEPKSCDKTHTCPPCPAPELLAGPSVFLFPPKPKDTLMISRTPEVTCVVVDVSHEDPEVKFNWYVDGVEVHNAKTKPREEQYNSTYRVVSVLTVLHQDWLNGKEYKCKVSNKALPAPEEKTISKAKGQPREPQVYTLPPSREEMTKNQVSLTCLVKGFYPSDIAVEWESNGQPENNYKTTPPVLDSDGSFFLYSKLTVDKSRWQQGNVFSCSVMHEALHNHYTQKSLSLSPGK
B1 gave a Kd of 1440 nM.
